# Results: PMC4336329 (PLoS ONE, 2015)
# In all, about 310,000 compounds went through this assay and about 2,200 (0.71%) showed an effect of 50% or more. Effects have a minus sign here. Some of the results follow.
# Target: human ether-à-go-go-related gene (hERG) potassium channel (human, UniProt Q12809)
# Experiment: primary screen, population patch clamp on CHO cells stably expressing hERG
# Sequence of human ether-à-go-go-related gene (hERG) potassium channel (Q12809 whole entry, looked up): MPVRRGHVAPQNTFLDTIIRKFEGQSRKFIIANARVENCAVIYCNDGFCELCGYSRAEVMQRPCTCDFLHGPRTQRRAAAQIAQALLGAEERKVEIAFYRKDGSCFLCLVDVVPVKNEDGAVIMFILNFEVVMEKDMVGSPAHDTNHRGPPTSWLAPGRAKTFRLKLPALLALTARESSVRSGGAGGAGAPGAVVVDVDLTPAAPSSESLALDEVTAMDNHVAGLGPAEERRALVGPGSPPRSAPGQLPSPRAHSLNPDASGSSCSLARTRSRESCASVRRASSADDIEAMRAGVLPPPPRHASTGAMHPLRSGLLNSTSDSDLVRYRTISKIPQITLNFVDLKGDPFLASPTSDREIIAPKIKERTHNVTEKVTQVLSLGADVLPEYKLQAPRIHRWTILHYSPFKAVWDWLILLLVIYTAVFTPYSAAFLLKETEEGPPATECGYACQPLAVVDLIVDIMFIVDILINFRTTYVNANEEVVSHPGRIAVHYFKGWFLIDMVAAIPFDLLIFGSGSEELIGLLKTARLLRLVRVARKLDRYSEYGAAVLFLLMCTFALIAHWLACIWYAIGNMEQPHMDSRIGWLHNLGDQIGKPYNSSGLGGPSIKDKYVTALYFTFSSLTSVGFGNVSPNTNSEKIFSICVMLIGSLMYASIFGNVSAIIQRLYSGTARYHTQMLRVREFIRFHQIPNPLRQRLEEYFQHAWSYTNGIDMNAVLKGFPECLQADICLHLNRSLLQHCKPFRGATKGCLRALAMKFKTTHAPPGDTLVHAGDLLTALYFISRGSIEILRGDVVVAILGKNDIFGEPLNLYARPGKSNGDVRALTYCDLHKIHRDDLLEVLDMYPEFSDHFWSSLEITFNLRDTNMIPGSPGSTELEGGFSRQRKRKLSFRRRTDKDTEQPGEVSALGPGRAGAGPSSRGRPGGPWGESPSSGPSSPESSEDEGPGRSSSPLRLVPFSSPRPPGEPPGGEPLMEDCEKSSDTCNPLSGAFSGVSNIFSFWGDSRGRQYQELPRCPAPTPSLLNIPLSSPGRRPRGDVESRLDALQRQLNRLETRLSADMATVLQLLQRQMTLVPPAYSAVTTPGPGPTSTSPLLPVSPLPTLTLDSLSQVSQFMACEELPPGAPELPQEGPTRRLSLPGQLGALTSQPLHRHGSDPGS
row,Structure (SMILES),"hERG current change (%, negative = inhibition) at 1uM"
1,CC(=O)c1ccc(NC(=O)NC2CC(=O)N(c3ccc4c(c3)OCCO4)C2)cc1 (centres unmarked),8.58%
2,O=C(O)c1ccc(N=N/C(=N\Nc2ccc(C(=O)O)cc2)c2ccccc2)cc1,8.1%
3,Cc1ccc(CNC(=O)C2CCN(S(=O)(=O)c3ccc4c(c3)OCCCO4)CC2)cc1,6.87%
4,CCOc1ccccc1N1CCN(C(=O)c2ccc(-c3ccc(OC(C)=O)cc3)cc2)CC1,10.2%
5,CCCCNC(=O)NS(=O)(=O)c1ccc(NC(=O)C(NC(N)=O)C(C)CC)cc1 (centres unmarked),17.7%
6,O=C(Nc1ccc(NC(=O)c2ccco2)cc1)c1ccc2c(c1)OCCO2,4.44%
7,COc1ccc(/C=C/C2=Nc3ccccc3NC(C)(C)C2)cc1OC,-5.11%
8,Cc1c(NC(=O)Nc2cc(F)c(F)cc2Cl)c(=O)n(-c2ccccc2)n1C,14.2%
9,COC(=O)c1c(NC(=O)CN2CCN(Cc3ccc4c(c3)OCO4)CC2)sc(C)c1C.O=C(O)C(=O)O,5.45%
10,CSc1ccccc1OCc1cc(C(=O)N2CCN3CCCC3C2)no1 (centres unmarked),6.81%
11,COc1ccc(CCc2nnc(CCC(=O)N(C)Cc3ccncc3C)o2)cc1,10.2%
12,O=C(CSc1nnnn1-c1ccccc1)Nc1ncc(Cc2cc(Cl)ccc2Cl)s1,13.4%
13,COc1ccc(/C=N/N=C(\N)c2nonc2N)cc1OC,19.4%
14,CCc1nn(CC(=O)Nc2cc(C)ccc2C)c(=N)s1.Cl,13.2%
15,Cn1c(SCC(=O)Nc2ccc3c(c2)CCC3)nnc1C1CC1,3.3%
16,O=C(CCNC(=O)c1ccccc1)NCCc1ccc(Cl)cc1,5.8%
17,CCOC(=O)C(C)Sc1nc(=O)n2cccc(C)c2n1 (centres unmarked),8.98%
18,S=c1[nH]nc(COc2ccccc2)n1/N=C/c1ccc(Cl)cc1,11.3%
19,CCN(CCCNC(=O)CN(C)S(=O)(=O)c1cccc2nsnc12)c1cccc(C)c1,5.25%
20,CC(C)C[C@H](NC(=O)c1[nH]cnc1C(=O)N[C@@H](Cc1ccccc1)C(=O)OCc1ccccc1)C(=O)OCc1ccccc1,10.2%
21,N/C(=N\OC(=O)COc1ccc2ccccc2c1Br)c1cccnc1,13.1%
22,Cc1ccc(S(=O)(=O)N2C(=O)CCC2C(=O)O/N=C(\N)c2ccc([N+](=O)[O-])cc2)cc1 (centres unmarked),31.9%

row,Structure (SMILES),"hERG current change (%, negative = inhibition) at 1uM"
1,COc1ccc(OCC(=O)Nc2ccccc2C(=O)NC(C)C)cc1,8.66%
2,CCOc1cc(NC(=O)C2CC2)c(OCC)cc1NC(=O)c1cccc(F)c1,12%
3,O/N=C1/CCCCc2sccc21,0.319%
4,Cc1c(Cl)cccc1-n1cnc(=O)c2ccccc21,1.24%
5,O=C(NCc1ccc(Cl)cc1)c1ccc(-c2ccccc2C(F)(F)F)o1,6.11%
6,CCCc1cc(=O)[nH]c(Nc2ccc3c(c2)OCCO3)n1,4.35%
7,CCOC(=O)c1cc(CC)sc1NC(=O)COc1ccc2c(C)cc(=O)oc2c1,11%
8,CC(C)OCCCNC(=O)c1c(N)n(Cc2cccs2)c2nc3ccccc3nc12,-9.56%
9,O=C(Nc1ccc(S(=O)(=O)NCc2ccccc2)cc1)c1ccccc1[N+](=O)[O-],10.8%
10,CC(=NCc1cccnc1)c1c(O)n(-c2ccc(Cl)cc2)c(=O)[nH]c1=O,11.9%
11,CCc1nnc(NC(=O)C(C)Sc2ccccc2)s1 (centres unmarked),0.446%
12,CCOC(=O)c1cc2c(ccn2-c2ccc(F)cc2)n1CC(=O)N1CCN(C(=O)c2ccco2)CC1,3.09%
13,C#Cc1ccc(CN2CCC(N3CCC(C(=O)NCc4ccccn4)CC3)CC2)cc1,-34.8%
14,COc1ccc2c(c1OC)C(=O)N1C2SC[C@H]1C(=O)NC1CCCCC1 (some centres unmarked),-7.32%
15,Cc1ccc(S(=O)(=O)/N=S(\C)CC2CC2(Cl)Cl)cc1 (centres unmarked),21.8%
16,O=C(Cc1ccccc1)OCC(=O)c1ccccc1,-9.12%
17,O=C(OCc1csc(-c2ccccc2)n1)c1ccccc1O,25.3%
18,Cc1ccc(NC(=O)c2ccccc2-c2cc(C)no2)cc1,3.69%
19,Cc1csc(NC(=O)c2ccoc2C)n1,-6.24%
20,COc1ccccc1Cn1c(=S)[nH]c2ccc(F)cc2c1=O,17.9%
21,Cc1ccc(N2CC(C(=O)Nc3ccccc3C(=O)N3CCOCC3)CC2=O)cc1 (centres unmarked),17.9%
22,Cc1ccc(CNC(=O)c2ccc(S(=O)(=O)Nc3c(C)n(C)n(-c4ccccc4)c3=O)cc2)cc1,-3.29%
